Results published in patent US20240076343A1 (CEPHALON, published 2024).

T1: intermediate-affinity hIL-2 receptor (IL-2Rβγ) on TF1+IL-2Rβ cells (human, UniProt P14784 27-551; P31785 23-369)
T1 sequence 1: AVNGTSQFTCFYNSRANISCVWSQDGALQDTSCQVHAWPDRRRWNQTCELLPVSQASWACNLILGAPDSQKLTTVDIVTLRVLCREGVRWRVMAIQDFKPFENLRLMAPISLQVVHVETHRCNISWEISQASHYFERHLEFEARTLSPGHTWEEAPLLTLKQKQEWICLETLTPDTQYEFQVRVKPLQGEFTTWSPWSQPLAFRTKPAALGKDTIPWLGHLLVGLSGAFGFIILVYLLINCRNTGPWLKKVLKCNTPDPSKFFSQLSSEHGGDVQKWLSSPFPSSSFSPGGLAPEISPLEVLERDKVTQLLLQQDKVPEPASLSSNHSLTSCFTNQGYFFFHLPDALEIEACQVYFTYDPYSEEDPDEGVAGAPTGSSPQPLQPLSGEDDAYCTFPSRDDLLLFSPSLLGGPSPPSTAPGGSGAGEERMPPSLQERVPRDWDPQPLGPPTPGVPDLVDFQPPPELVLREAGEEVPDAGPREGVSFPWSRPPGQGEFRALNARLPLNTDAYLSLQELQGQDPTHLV
T1 sequence 2: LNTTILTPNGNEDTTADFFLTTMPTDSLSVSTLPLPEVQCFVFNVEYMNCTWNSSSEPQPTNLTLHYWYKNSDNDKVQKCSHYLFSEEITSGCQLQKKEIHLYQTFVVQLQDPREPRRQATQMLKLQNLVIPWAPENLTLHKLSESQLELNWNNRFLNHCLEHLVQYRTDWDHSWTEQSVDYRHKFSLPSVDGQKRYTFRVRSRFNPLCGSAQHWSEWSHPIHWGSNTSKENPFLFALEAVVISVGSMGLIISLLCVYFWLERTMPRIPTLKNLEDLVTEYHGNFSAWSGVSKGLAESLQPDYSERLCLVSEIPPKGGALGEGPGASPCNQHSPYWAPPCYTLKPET

T2: high-affinity hIL-2 receptor (IL-2Rαβγ) on NK-92 cells (human, UniProt P01589 22-272; P14784 27-551; P31785 23-369)
T2 sequence 1: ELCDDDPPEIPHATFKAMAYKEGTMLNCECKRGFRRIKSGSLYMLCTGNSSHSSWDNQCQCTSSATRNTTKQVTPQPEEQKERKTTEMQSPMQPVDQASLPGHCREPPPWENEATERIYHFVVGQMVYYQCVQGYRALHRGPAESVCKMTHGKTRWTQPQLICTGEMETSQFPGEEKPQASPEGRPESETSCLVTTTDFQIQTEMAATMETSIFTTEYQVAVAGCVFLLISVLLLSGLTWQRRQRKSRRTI
T2 sequence 2: T1 sequence 1
T2 sequence 3: T1 sequence 2

B1: 2H7-hIgG1-LAGA-df-hIL-2 (T3A/R38E/D84K/C125A) (other)
heavy: EVQLLESGGGLVQPGGSLRLSCAASGFTFKDYCMTWVRQAPGKGLEWVSAIVYSGGSTYYADSVKGRFTISRDNSKNTLYLQMNNLRAEDTAVYYCAKYTRASYFYDAMDVWGQGTTVTVSS[not shown - human IgG1 constant region with L235A G237A (EU numbers)]APASSSTKKTQLQLEHLLLDLQMILNGINNYKNPKLTEMLTFKFYMPKKATELKHLQCLEEELKPLEEVLNLAQSKNFHLRPRKLISNINVIVLELKGSETTFMCEYADETATIVEFLNRWITFAQSIISTLT
light: EIVLTQSPGTLSLSPGERATLSCRASQSIGKSFLAWYQQKPGQAPRLLIYDASTRAADIPARFSGSGSGTDFTLTISSLEPEDFAVYYCQQYYDWPPLSFGGGTKVEIKRTVAAPSVFIFPPSDEQLKSGTASVVCLLNNFYPREAKVQWKVDNALQSGNSQESVTEQDSKDSTYSLSSTLTLSKADYEKHKVYACEVTHQGLSSPVTKSFNRGEC
notes: antibody-hIL-2 fusion; also called 2H7-hIgG1-LAGA-hIL-2 (T3A/R38E/D84K/C125A)
B2: 2H7-hIgG1-LAGA-df-hIL2 (T3A/R38E/I92E/C125A) (other)
heavy: EVQLLESGGGLVQPGGSLRLSCAASGFTFKDYCMTWVRQAPGKGLEWVSAIVYSGGSTYYADSVKGRFTISRDNSKNTLYLQMNNLRAEDTAVYYCAKYTRASYFYDAMDVWGQGTTVTVSS[not shown - human IgG1 constant region with L235A G237A (EU numbers)]APASSSTKKTQLQLEHLLLDLQMILNGINNYKNPKLTEMLTFKFYMPKKATELKHLQCLEEELKPLEEVLNLAQSKNFHLRPRDLISNINVEVLELKGSETTFMCEYADETATIVEFLNRWITFAQSIISTLT
light: B1 light
B3: 2H7-hIgG1-LAGA-df-hIL2 (T3A/R38E/I92R/C125A) (other)
heavy: EVQLLESGGGLVQPGGSLRLSCAASGFTFKDYCMTWVRQAPGKGLEWVSAIVYSGGSTYYADSVKGRFTISRDNSKNTLYLQMNNLRAEDTAVYYCAKYTRASYFYDAMDVWGQGTTVTVSS[not shown - human IgG1 constant region with L235A G237A (EU numbers)]APASSSTKKTQLQLEHLLLDLQMILNGINNYKNPKLTEMLTFKFYMPKKATELKHLQCLEEELKPLEEVLNLAQSKNFHLRPRDLISNINVRVLELKGSETTFMCEYADETATIVEFLNRWITFAQSIISTLT
light: B1 light
B4: 2H7-hIgG1-LAGA-df-hIL2 (T3A/R38E/D84F/C125A) (other)
heavy: EVQLLESGGGLVQPGGSLRLSCAASGFTFKDYCMTWVRQAPGKGLEWVSAIVYSGGSTYYADSVKGRFTISRDNSKNTLYLQMNNLRAEDTAVYYCAKYTRASYFYDAMDVWGQGTTVTVSS[not shown - human IgG1 constant region with L235A G237A (EU numbers)]APASSSTKKTQLQLEHLLLDLQMILNGINNYKNPKLTEMLTFKFYMPKKATELKHLQCLEEELKPLEEVLNLAQSKNFHLRPRFLISNINVIVLELKGSETTFMCEYADETATIVEFLNRWITFAQSIISTLT
light: B1 light
B5: 2H7-hIgG1-LE-df-hIL-2 (T3A/R38E/I92K/C125A) (other)
heavy: EVQLLESGGGLVQPGGSLRLSCAASGFTFKDYCMTWVRQAPGKGLEWVSAIVYSGGSTYYADSVKGRFTISRDNSKNTLYLQMNNLRAEDTAVYYCAKYTRASYFYDAMDVWGQGTTVTVSS[not shown - human IgG1 constant region with changes]APASSSTKKTQLQLEHLLLDLQMILNGINNYKNPKLTEMLTFKFYMPKKATELKHLQCLEEELKPLEEVLNLAQSKNFHLRPRDLISNINVKVLELKGSETTFMCEYADETATIVEFLNRWITFAQSIISTLT
light: B1 light

target: T1, intermediate-affinity hIL-2 receptor …; experiment: cell-based or functional assay

Fold decrease from rhIL-2 (TF1 + IL-2Rβ + hPD-1) [fold]	Binder
~1	B1
~2	B2
~0	B3
~0	B4
~1	B5

target: T3, recombinant His-tagged cynomolgus PD-1 (Acro Biosystems) (cynomolgus, UniProt B0LAJ3 25-170); experiment: SPR Carterra LSA;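 also: antibodies or fusion proteins amine-coupled on an HC30M chip, soluble His-tagged human or cynomolgus PD-1 titrated over them, non-regenerative kinetics, constants fitted from titration curves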
T3 construct: His-tagged; also called Cyno PD-1; not shown: His tag (and any linker) of the Acro Biosystems product
T3 sequence (B0LAJ3 entry or part of it limits assumed): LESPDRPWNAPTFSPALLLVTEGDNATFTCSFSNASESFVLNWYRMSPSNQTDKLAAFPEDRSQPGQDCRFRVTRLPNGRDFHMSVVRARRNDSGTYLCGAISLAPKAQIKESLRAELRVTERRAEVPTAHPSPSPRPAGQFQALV

Kd [nM]	koff [s⁻¹]	kon [M⁻¹ s⁻¹]	Binder
13	0.001	76000	B1

target: T4, recombinant His-tagged human PD-1 (Acro Biosystems) (human, UniProt Q15116 fragment); experiment: SPR Carterra LSA;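 also: antibodies or fusion proteins amine-coupled on an HC30M chip, soluble His-tagged human or cynomolgus PD-1 titrated over them, non-regenerative kinetics, constants fitted from titration curves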
T4 construct: His-tagged; also called hPD-1
T4 sequence (Q15116 25-167 limits assumed): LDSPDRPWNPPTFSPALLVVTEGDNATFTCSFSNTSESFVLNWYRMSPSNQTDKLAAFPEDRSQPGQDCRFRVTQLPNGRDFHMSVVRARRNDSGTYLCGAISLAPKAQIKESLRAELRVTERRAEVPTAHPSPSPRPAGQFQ

Kd [nM]	koff [s⁻¹]	kon [M⁻¹ s⁻¹]	Binder
6.2	0.00081	130000	B1

target: T2, high-affinity hIL-2 receptor (IL-2Rαβγ) …; experiment: cell-based or functional assay

Fold change from rhIL-2 (NK-92) [fold]	Binder
118	B2
75	B3
6200	B4
319	B5

target: T1, intermediate-affinity hIL-2 receptor …; experiment: cell-based or functional assay; remark: another data set of the same source

Fold change from rhIL-2 (TF1 + IL-2Rβ) [fold]	Binder
53	B2
89	B3
3920	B4
656	B5
